In the supplement of paper PMC8728848:
The other results are listed elsewhere or left out.

Key:
Test in all cases: glycan array binding signal (z-score within array); higher = stronger binding
Conditions in all cases: glycan notation: IUPAC condensed, linker removed
[1] = target: Gal4S6S(b1-4)GlcNAc
Method in brief: (§1)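 The binding signal is a Z-score computed within each array and averaged over linkers. Arrays of the same protein sequence at different concentrations or buffers were also averaged together. Data originate from 3228 arrays in the Consortium for Functional Glycomics database, kept only where the protein sequence was available.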

[2] = target: Gal6S(b1-4)Glc
Method in brief: as §1

[3] = target: Gal6S(b1-4)Glc6S
Method in brief: as §1

[4] = target: Gal6S(b1-4)GlcNAc
Method in brief: as §1

[5] = target: GalNAc(a1-3)Gal
Method in brief: as §1

[6] = target: GalNAc(a1-3)GalNAc
Method in brief: as §1

[7] = target: GalNAc(b1-3)Gal(a1-4)Gal(b1-4)GlcNAc
Method in brief: as §1

[8] = target: GalNAc(b1-3)GalNAc
Method in brief: as §1

[9] = target: GalNAc(b1-4)GlcNAc
Method in brief: as §1

[10] = target: Glc(a1-4)Glc
Method in brief: as §1

[11] = target: Glc(a1-6)Glc(a1-6)Glc
Method in brief: as §1

[12] = target: Glc(b1-4)Glc
Method in brief: as §1

[13] = target: Glc(b1-6)Glc
Method in brief: as §1

[14] = target: GlcA(b1-3)Gal
Method in brief: as §1

[15] = target: GlcA(b1-6)Gal
Method in brief: as §1

[16] = target: GlcNAc(a1-3)Gal(b1-4)GlcNAc
Method in brief: as §1

[17] = target: GlcNAc(a1-6)Gal(b1-4)GlcNAc
Method in brief: as §1

[18] = target: GlcNAc(b1-2)Gal(b1-3)GalNAc
Method in brief: as §1

[19] = target: GlcNAc(b1-2)Man(a1-3)[GlcNAc(b1-2)Man(a1-6)]Man(b1-4)GlcNAc(b1-4)GlcNAc
Method in brief: as §1

[20] = target: GlcNAc(b1-3)Gal
Method in brief: as §1

[21] = target: GlcNAc(b1-3)Gal(b1-3)GalNAc
Method in brief: as §1

[22] = target: GlcNAc(b1-3)Gal(b1-4)Glc
Method in brief: as §1

[23] = target: GlcNAc(b1-3)Gal(b1-4)GlcNAc
Method in brief: as §1

[24] = target: GlcNAc(b1-3)Gal(b1-4)GlcNAc(b1-3)Gal(b1-4)GlcNAc
Method in brief: as §1

[25] = target: GlcNAc(b1-3)GalNAc
Method in brief: as §1

[26] = target: GlcNAc(b1-3)[GlcNAc(b1-6)]Gal(b1-4)GlcNAc
Method in brief: as §1

[27] = target: GlcNAc(b1-3)[GlcNAc(b1-6)]GalNAc
Method in brief: as §1

[28] = target: GlcNAc(b1-3)[GlcNAc(b1-6)]GlcNAc(b1-4)GlcNAc
Method in brief: as §1

[29] = target: GlcNAc(b1-4)Gal(b1-4)GlcNAc
Method in brief: as §1

[30] = target: GlcNAc(b1-4)GlcNAc(b1-4)GlcNAc
Method in brief: as §1

[31] = target: GlcNAc(b1-4)GlcNAc(b1-4)GlcNAc(b1-4)GlcNAc(b1-4)GlcNAc
Method in brief: as §1

[32] = target: GlcNAc(b1-4)GlcNAc(b1-4)GlcNAc(b1-4)GlcNAc(b1-4)GlcNAc(b1-4)GlcNAc
Method in brief: as §1

[33] = target: GlcNAc(b1-4)[GlcNAc(b1-6)]GalNAc
Method in brief: as §1

[34] = target: GlcNAc(b1-6)Gal(b1-4)GlcNAc
Method in brief: as §1

[35] = target: GlcNAc(b1-6)GalNAc
Method in brief: as §1

[36] = target: Kdn(a2-3)Gal(b1-3)GlcNAc
Method in brief: as §1

[37] = target: Kdn(a2-3)Gal(b1-4)GlcNAc
Method in brief: as §1

[38] = target: Man(a1-2)Man(a1-2)Man(a1-3)Man
Method in brief: as §1

[39] = target: Man(a1-2)Man(a1-2)Man(a1-6)[Man(a1-3)]Man
Method in brief: as §1

[40] = target: Man(a1-2)Man(a1-3)Man
Method in brief: as §1

[41] = target: Man(a1-2)Man(a1-3)[Man(a1-2)Man(a1-6)]Man
Method in brief: as §1

[42] = target: Man(a1-2)Man(a1-3)[Man(a1-2)Man(a1-6)]Man(a1-6)[Man(a1-2)Man(a1-2)Man(a1-3)]Man(b1-4)GlcNAc(b1-4)GlcNAc
Method in brief: as §1

[43] = target: Man(a1-2)Man(a1-3)[Man(a1-6)]Man(a1-6)[Man(a1-2)Man(a1-3)]Man(b1-4)GlcNAc(b1-4)GlcNAc
Method in brief: as §1

[44] = target: Man(a1-2)Man(a1-6)[Man(a1-3)]Man(a1-6)[Man(a1-2)Man(a1-2)Man(a1-3)]Man(b1-4)GlcNAc(b1-4)GlcNAc
Method in brief: as §1

[45] = target: Man(a1-3)[Man(a1-6)]Man
Method in brief: as §1

[46] = target: Man(a1-3)[Man(a1-6)]Man(a1-6)[Man(a1-2)Man(a1-3)]Man(b1-4)GlcNAc(b1-4)GlcNAc
Method in brief: as §1

[47] = target: Man(a1-3)[Man(a1-6)]Man(a1-6)[Man(a1-3)]Man(b1-4)GlcNAc(b1-4)GlcNAc
Method in brief: as §1

[48] = target: Man(a1-3)[Man(a1-6)]Man(b1-4)GlcNAc(b1-4)GlcNAc
Method in brief: as §1

[49] = target: Man(b1-4)GlcNAc
Method in brief: as §1

[50] = target: Neu5Ac(a2-3)Gal
Method in brief: as §1

[51] = target: Neu5Ac(a2-3)Gal(b1-3)GalNAc
Method in brief: as §1

[52] = target: Neu5Ac(a2-3)Gal(b1-3)GalNAc(b1-3)Gal(a1-4)Gal(b1-4)Glc
Method in brief: as §1

B1: CLL-1 (Homo sapiens) (protein)
chain: MWIDFFTYSSMSEEVTYADLQFQNSSEMEKIPEIGKFGEKAPPAPSHVWRPAALFLTLLCLLLLIGLGVLASMFHVTLKIEMKKMNKLQNISEELQRNISLQLMSNMNISNKIRNLSTTLQTIATKLCRELYSKEQEHKCKPCPRRWIWHKDSCYFLSDDVQTWQESKMACAAQNASLLKINNKNALEFIKSQSRSYDYWLGLSPEEDSTRGMRVDNIINSSAWVIRNAPDLNNMYCGYINRLYVQYYHCTYKKRMICEKMANPVQLGSTYFREA
**Q.** How did the “glycan array binding signal (z-score)” value [1] turn out when B1 was run?
**A.** Its value is 0.267.

**Q.** And the “glycan array binding signal (z-score)” value [2]?
**A.** Its value is 0.398.

**Q.** What about the “glycan array binding signal (z-score)” value [3] of the same binder?
**A.** The value was 0.275.

**Q.** What about the “glycan array binding signal (z-score)” value [4] of the same binder?
**A.** Its value is -0.093.

**Q.** And the “glycan array binding signal (z-score)” value [5]?
**A.** The value was -0.122.

**Q.** And the “glycan array binding signal (z-score)” value [6]?
**A.** The value was -0.243.

**Q.** And the “glycan array binding signal (z-score)” value [7]?
**A.** Its value is -0.275.

**Q.** What about the “glycan array binding signal (z-score)” value [8] of the same binder?
**A.** Its value is -0.035.

**Q.** What about the “glycan array binding signal (z-score)” value [9] of the same binder?
**A.** Its value is -0.221.

**Q.** What about the “glycan array binding signal (z-score)” value [10] of the same binder?
**A.** The value was 1.

**Q.** And the “glycan array binding signal (z-score)” value [11]?
**A.** Its value is -0.11.

**Q.** What about the “glycan array binding signal (z-score)” value [12] of the same binder?
**A.** Its value is -0.244.

**Q.** What about the “glycan array binding signal (z-score)” value [13] of the same binder?
**A.** The value was -0.306.

**Q.** What about the “glycan array binding signal (z-score)” value [14] of the same binder?
**A.** Its value is -0.159.

**Q.** And the “glycan array binding signal (z-score)” value [15]?
**A.** The value was -0.161.

**Q.** And the “glycan array binding signal (z-score)” value [16]?
**A.** The value was -0.303.

**Q.** And the “glycan array binding signal (z-score)” value [17]?
**A.** Its value is -0.315.

**Q.** And the “glycan array binding signal (z-score)” value [18]?
**A.** Its value is -0.141.

**Q.** And the “glycan array binding signal (z-score)” value [19]?
**A.** The value was -0.128.

**Q.** And the “glycan array binding signal (z-score)” value [20]?
**A.** Its value is -0.18.

**Q.** What about the “glycan array binding signal (z-score)” value [21] of the same binder?
**A.** Its value is -0.103.

**Q.** What about the “glycan array binding signal (z-score)” value [22] of the same binder?
**A.** The value was -0.109.

**Q.** And the “glycan array binding signal (z-score)” value [23]?
**A.** Its value is -0.178.

**Q.** And the “glycan array binding signal (z-score)” value [24]?
**A.** The value was -0.274.

**Q.** What about the “glycan array binding signal (z-score)” value [25] of the same binder?
**A.** Its value is -0.228.

**Q.** What about the “glycan array binding signal (z-score)” value [26] of the same binder?
**A.** Its value is -0.164.

**Q.** And the “glycan array binding signal (z-score)” value [27]?
**A.** Its value is -0.19.

**Q.** What about the “glycan array binding signal (z-score)” value [28] of the same binder?
**A.** Its value is -0.278.

**Q.** And the “glycan array binding signal (z-score)” value [29]?
**A.** The value was -0.228.

**Q.** What about the “glycan array binding signal (z-score)” value [30] of the same binder?
**A.** Its value is -0.145.

**Q.** And the “glycan array binding signal (z-score)” value [31]?
**A.** The value was -0.221.

**Q.** What about the “glycan array binding signal (z-score)” value [32] of the same binder?
**A.** Its value is -0.243.

**Q.** And the “glycan array binding signal (z-score)” value [33]?
**A.** The value was -0.247.

**Q.** And the “glycan array binding signal (z-score)” value [34]?
**A.** The value was -0.256.

**Q.** What about the “glycan array binding signal (z-score)” value [35] of the same binder?
**A.** Its value is -0.211.

**Q.** And the “glycan array binding signal (z-score)” value [36]?
**A.** Its value is 0.154.

**Q.** And the “glycan array binding signal (z-score)” value [37]?
**A.** Its value is -0.099.

**Q.** And the “glycan array binding signal (z-score)” value [38]?
**A.** The value was 0.01.

**Q.** What about the “glycan array binding signal (z-score)” value [39] of the same binder?
**A.** The value was -0.185.

**Q.** And the “glycan array binding signal (z-score)” value [40]?
**A.** The value was -0.156.

**Q.** What about the “glycan array binding signal (z-score)” value [41] of the same binder?
**A.** The value was -0.22.

**Q.** And the “glycan array binding signal (z-score)” value [42]?
**A.** Its value is -0.173.

**Q.** And the “glycan array binding signal (z-score)” value [43]?
**A.** Its value is -0.048.

**Q.** What about the “glycan array binding signal (z-score)” value [44] of the same binder?
**A.** Its value is -0.179.

**Q.** And the “glycan array binding signal (z-score)” value [45]?
**A.** The value was -0.245.

**Q.** And the “glycan array binding signal (z-score)” value [46]?
**A.** The value was -0.104.

**Q.** What about the “glycan array binding signal (z-score)” value [47] of the same binder?
**A.** Its value is -0.209.

**Q.** What about the “glycan array binding signal (z-score)” value [48] of the same binder?
**A.** Its value is -0.076.

**Q.** What about the “glycan array binding signal (z-score)” value [49] of the same binder?
**A.** The value was -0.227.

**Q.** And the “glycan array binding signal (z-score)” value [50]?
**A.** Its value is -0.285.

**Q.** And the “glycan array binding signal (z-score)” value [51]?
**A.** The value was -0.176.

**Q.** And the “glycan array binding signal (z-score)” value [52]?
**A.** The value was -0.108.
